Data taken from patent US20160287696A1, “PAN POLLEN IMMUNOGENS AND METHODS AND USES FOR IMMUNE RESPONSE MODULATION” (LA JOLLA INSTITUTE FOR ALLERGY AND IMMUNOLOGY, priority 2013, published 2016).

Test system: cultured PBMCs of the allergic donors
Test: ELISPOT of IL-5 or IFNg production by cultured PBMCs of TG allergic donors in response to peptide
Format: cell-based, human
Excerpt: Table 1 indicates for each of the 397 PG+ peptides in which non-grass pollen species a matching peptide with either less than 3, less than 2 or zero mismatches are found. The number of TG grass allergic donors (n=20) with an in vitro T cell response to the TG peptide sequence is also shown.
A set of 93 proteins from Timothy grass (TG) pollen and the assembly of 822 peptides (15 mers) predicted to promiscuously bind HLA class II molecules shown in Table 9 and the immune reactivity in allergic donors have been reported in PCT application WO 2013/119863. […] Immune reactivity was determined by the production of IL-5 or IFNg from cultured PBMCs of the allergic donors in response to stimulation with a peptide and IL-5 and IFNg were measured by ELISPOT as described in Oseroff C et al, 2010.
In short, T cell immune reactivity was determined using PBMCs isolated from study participants and stored in liquid nitrogen until further use. For experimental testing, PBMCs were thawed and expanded in vitro with TG pollen extract (50 μg/mL) or the peptide pool ([…]). The TG extract and peptide pools had each been previously titrated to determine optimal stimulation concentrations.
Cytokine production by cultured PBMCs in response to antigen stimulation was measured by ELISPOT. Cells (1×10^5 cells/well) were plated and incubated with peptide (10 μg/mL), the peptide pool (5 μg/mL), or the TG extract (50 μg/mL). Phytohaemagglutinin (10 μg/mL) and medium alone were used as positive and negative controls, respectively. Samples were considered to produce a cytokine if 100 spot-forming cells (SFCs)/10^6 PBMCs were detected, with P .05 and a stimulation index of 2 or more. Criteria for individual peptides were the same except that a minimum of 20 SFCs were required for a sample to be counted as positive.
Table 3 lists the 397 PG+ peptides and indicates for each non-grass pollen species whether a matching peptide with either less than 3, less than 2 or zero mismatches could be detected. The immune reactivity of the TG peptide was assessed as the number of TG grass allergic donors (n=20) having in vitro T cell response against the TG peptide.

B1: NTGA 22: Phl p wild type sequence, Table 2 (protein)
chain: MALPNQGTVDYPSFKLVIVGDGGTGKTTFVKRHLTGEFEKKYEPTIGVEVHPLDFTTNCGKIRFYCWDTAGQEKFGGLRDGYYIHGQCAIIMFDVTSRLTYKNVPTWHRDLCRVCENIPIVLCGNKVDVKNRQVKAKQVTFHRKKNLQYYEISAKSNYNFEKPFLYLARKLAGDANIHFVEAVALKPPEVTFDLAMQQQH
modifications: Phleum Pratense
B1 was tested, and the “immune reactivity (SFC counts in ELISPOT) of highly conserved PG+ peptides derived from the NTGA” value was “high immune reactivity”, the “NTGA's containing at least one T cell epitope, Th+ (Col 2)” value (NTGA number given = criterion met, TG allergic donors n=20) was 22 and the “No of PG+ & th+ peptides per NTGA” value (Table 6, PG+ peptides recognized by T cells of grass allergic donors (n=20)) was 4. The “No of PP & Th+ peptides per NTGA” value (Table 6, PP peptides recognized by T cells of grass allergic donors (n=20)) was 3 and the “# Th+” value (Table 7, peptides per NTGA recognized by T cells of grass allergic donors (n=20)) was 0.
